# Reference: PubChem BioAssay AID1745846 (National Center for Advancing Translational Sciences (NCATS), 2022)
# Hit rate of the full screen: of about 1,400 compounds, about 30 (2%) were called active. Inconclusive means that the source gave no clear call. Such entries were picked first, then a sample of the others. The call rests on the fitted dose curve; in most records, active means well fitted inhibition curve with a large enough effect; inconclusive means small, poorly fitted or top-dose-only effect; inactive means flat fitted curve, though single readings scatter. Potencies of inconclusive entries are doubtful fits and often do not repeat.
# Experiment: Firefly Luciferase Counterscreen for Inhibitors of ATXN expression
# Details: luminescence; series mostly up to 57.5 µM; activity change, negative = inhibition: at the top concentration
# Outline: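 Recombinant firefly luciferase at 10 nM final in 50 mM Tris pH 7.5, 10 mM MgCl2, 0.05% BSA, 0.01% Tween20 with substrate; compounds up to 57 uM final, 10 min room temperature, end-point luminescence. Buffer-only wells define 100% inhibition.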
# On the % scale 0 is the no-effect control and ±100 the full control effect; potency means the concentration at half of the fitted maximal effect; tags describe the fitted curve by direction and shape.
Compound,Potency,"activity change, negative = inhibition"
CCOC(=O)c1c(C)nn(-c2ccc(NC(=O)/C=C/C(=O)O)cc2)c1C,"inconclusive: 28.2 µM [inhibitor, partial curve, poor fit]",–
COc1ccc(-c2cnc3c(NC=O)cc(-c4ccccc4OC)cn23)cc1OC,–,inactive: -3.03%
O=C(CCCOc1ccc(Cl)cc1Cl)N/N=C/c1ccccc1O,–,inactive: -14.6%
CC(=O)C(C(C)=O)c1c(Cl)c(O)c(O)c2c(C(=O)c3ccccc3)coc12,"inconclusive: 14.1 µM [inhibitor, partial curve]",–
O=C(N/N=C/c1ccc([N+](=O)[O-])o1)c1ccc2c(c1)OCO2,"inconclusive: 28.2 µM [inhibitor, partial curve, poor fit]",–
CCOC(=O)c1c(NC(=O)/C=C/C(=O)O)sc(C)c1-c1ccc(Cl)cc1,"inconclusive: 31.6 µM [inhibitor, single point]",–
CCOc1cccc(/C=N/NC(=O)C2CCCC2)c1O,"inconclusive: 25.1 µM [inhibitor, partial curve]",–
CC(C)c1ccc(S(=O)(=O)c2cc3cc(Br)ccc3oc2=O)cc1,–,inactive: 2.64%
Cc1ccc(/C=C2/SC(=S)N(CCCC(=O)Nc3ccc(O)cc3)C2=O)cc1,"inconclusive: 7.08 µM [inhibitor, partial curve]",–
COc1ccc(C)cc1NC(=O)CSc1ccc(-c2ccccn2)nn1,"inconclusive: 25.1 µM [inhibitor, partial curve, poor fit]",–
COc1ccc(/C=C/C(=O)Nc2ccc(C)c(S(=O)(=O)N3CCOCC3)c2)cc1,"inconclusive: 11.2 µM [inhibitor, partial curve]",–
C/C(=N\NC(=O)Cc1ccc(Cl)cc1)c1ccccc1O,–,inactive: -5.39%
Cc1cc(SCC(=O)N/N=C/c2ccc(O)cc2O)nc2ccccc12,"inconclusive: 28.2 µM [inhibitor, partial curve, poor fit]",–
COc1ccccc1N(CC(=O)N/N=C/c1c(O)ccc2ccccc12)S(C)(=O)=O,–,inactive: -10.5%
COc1ccc(NC(=O)c2cc(-c3cc(Cl)ccc3OC)n[nH]2)cc1OC,–,inactive: -15.7%
Cc1ccc(NC(=O)CN2C(=O)c3ccccc3S2(=O)=O)cc1C,–,inactive: -22.2%
CC(C)CC(N)c1csc(Nc2ccc(C(=O)N(C)Cc3ccccc3)cn2)n1 (stereo not drawn),–,inactive: 4.85%
COc1cccc2c1C1COC3C4CC(C(=O)O)C(C(C2)N13)N4C (stereo not drawn),–,inactive: 2.05%
CC(Oc1ccc(F)cc1)C(=O)Nc1nc(-c2ccccn2)cs1 (stereo not drawn),–,inactive: -4.9%
Cc1[nH]n(-c2cccc3ccccc23)c(=O)c1/C=N/NC(=O)c1cccc([N+](=O)[O-])c1,"inconclusive: 25.1 µM [inhibitor, single point]",–
CC(=NNC(=O)c1ccncc1)c1ccccc1O,"inconclusive: 31.6 µM [inhibitor, partial curve, poor fit]",–
CC(C)(C)c1ccc(NC(=O)N2CCCN(c3c(Cl)cncc3Cl)CC2)cc1,"inconclusive: 28.2 µM [inhibitor, partial curve, poor fit]",–
CN(C)CCNC(=O)c1cccc(-c2cnc3c(NC=O)cc(/C=C/c4ccccc4)cn23)c1,"inconclusive: 28.2 µM [inhibitor, partial curve, poor fit]",–

Compound,Potency,"activity change, negative = inhibition"
CC(=O)N(C1=C(Cl)C(=O)c2ccccc2C1=O)C1CCCCC1,"inconclusive: 7.08 µM [inhibitor, partial curve]",–
Cc1cc(O)c(C)c(O)c1/C=N/NC(=O)c1cccnc1,–,inactive: -2.83%
COc1ccc(CNC(=O)Nc2nc(C(N)Cc3ccc(Cl)cc3)cs2)cc1 (stereo not drawn),–,inactive: -1.52%
O=C(CCCN1C(=O)/C(=C/c2ccccc2Cl)SC1=S)Nc1ccccn1,"inconclusive: 28.2 µM [inhibitor, partial curve, poor fit]",–
Cc1nc2c(OCc3ccc(C#N)cc3)cccn2c1N(C)Cc1cccs1,–,inactive: 0.28%
COc1ccccc1NC(=O)CSc1n[nH]c(-c2ccccn2)n1,–,inactive: -9.45%
COC(=O)Cc1[nH]n(-c2nc3ccccc3s2)c(=O)c1C(C)=Nc1ccc(C)cc1,"inconclusive: 28.2 µM [inhibitor, partial curve, poor fit]",–
Cc1nc(-c2ccc(C(F)(F)F)cc2)sc1C(=O)NN,"inconclusive: 25.1 µM [inhibitor, partial curve]",–
CCc1ccc(NC(=O)COc2ccc(/C=C(/C#N)c3nc4ccccc4[nH]3)cc2OC)cc1,–,inactive: 2.59%
O=C(/C=C/NNC(=O)c1ccccc1)c1ccc([N+](=O)[O-])cc1,"inconclusive: 25.1 µM [inhibitor, partial curve, poor fit]",–
Cc1nc2ccccc2n1/N=C/c1ccc([N+](=O)[O-])o1,–,inactive: -2.11%
C/C(=N\NC(=O)c1cc(-c2cccnc2)nc2ccccc12)c1ccc(O)cc1O,"inconclusive: 15.8 µM [inhibitor, partial curve]",–
Cc1ccc(/C=C2\SC(=S)N(CCCC(=O)Nc3cccnc3)C2=O)cc1,"inconclusive: 14.1 µM [inhibitor, partial curve]",–
CCN(CC)c1ccc(/C=N/NC(=O)Cc2cccs2)c(O)c1,"inconclusive: 15.8 µM [inhibitor, partial curve]",–
NS(=O)(=O)c1ccc(CCNc2ncnc3c2c(-c2ccccc2)cn3-c2ccc(F)cc2)cc1,–,inactive: -1.88%
COc1ccccc1CNc1nc(NC(C)C)nc2cc(-c3ccccc3)sc12,"inconclusive: 22.4 µM [inhibitor, single point]",–
O=C(NNC(=O)c1cccc2ccccc12)c1ccccc1O,"inconclusive: 25.1 µM [inhibitor, partial curve]",–
Cc1ccc(-c2cn(-c3ccc(OC(F)F)cc3)c3[n+]2CCCCC3)cc1,–,inactive: -0.299%
CCn1c2ccccc2c2cc(/C=N/NC(=O)c3ccc(O)cc3)ccc21,"inconclusive: 14.1 µM [inhibitor, partial curve, poor fit]",–
O=C1C=C(NCCc2cc(Br)c(O)c(Br)c2)C(=O)c2ncccc21,"inconclusive: 22.4 µM [inhibitor, partial curve]",–
CCc1cc[n+](C2=C([O-])c3ccccc3C(=O)/C2=N\S(=O)(=O)c2cccs2)cc1,"inconclusive: 28.2 µM [inhibitor, partial curve, poor fit]",–
Clc1c(Cl)c(Cl)c2n[nH]nc2c1Cl,"inconclusive: 25.1 µM [inhibitor, single point]",–
COc1cc(/C=N\NC(=O)CC#N)ccc1OC/C=C/c1ccccc1,–,inactive: -3.57%

Compound,Potency,"activity change, negative = inhibition"
O=c1c2c(nc3c(-c4cccc(Br)c4)c[nH]n13)CCCC2,"inconclusive: 28.2 µM [inhibitor, partial curve, poor fit]",–
Cc1ccccc1N=Nc1ccc(O)c2ncccc12,–,inactive: -2.38%
CC(CCc1ccccc1)NC(=O)c1ccc(C(=O)NC(C)CCc2ccccc2)cc1 (stereo not drawn),–,inactive: 1.04%
CN(CCc1ccccc1)c1cc2c(c3c1ccn3C)C1CCC2O1 (stereo not drawn),"inconclusive: 22.4 µM [inhibitor, single point]",–
O=c1ccc2ccccc2c2ccccc12,"inconclusive: 28.2 µM [inhibitor, partial curve, poor fit]",–
O=C(Nc1ccc(N2CCN(C(=O)c3cccs3)CC2)c(Cl)c1)c1cccnc1,–,inactive: -0.903%
COC(=O)c1cc(NC(=O)c2cc(-c3ccc(C(F)(F)F)cc3)oc2C(F)(F)F)ccc1N1CCOCC1,–,inactive: -5.33%
CC(C)Nc1nc(NCCOc2ccccc2)c2sccc2n1,–,inactive: 0.974%
CN(CC(=O)Nc1ccc(Cl)cc1)C(=O)c1ccc(S(=O)(=O)Nc2ccccc2)cc1,"inconclusive: 22.4 µM [inhibitor, partial curve, poor fit]",–
COc1cccc(CN(C)C(=O)CNC(=O)c2ccc(-c3ccccc3)cc2)c1OC,"inconclusive: 25.1 µM [inhibitor, partial curve, poor fit]",–
COc1ccc(Cn2c(O)c(/C=N/NC(=O)c3cccnc3)c3ccccc3c2=O)cc1,"inconclusive: 35.5 µM [inhibitor, partial curve, poor fit]",–
CCc1nc2c(OCc3ccc(Cl)cc3)cccn2c1N(C=O)Cc1ccc(OC)cc1,–,inactive: -3.69%
OC(c1ccccc1)(c1nc(-c2cc3ccccc3o2)cs1)C(F)(F)F (stereo not drawn),"inconclusive: 31.6 µM [inhibitor, partial curve, poor fit]",–
CC(=O)c1c(C)[nH]c(C(=O)Nc2nc(-c3ccc(-c4ccccc4)cc3)cs2)c1C,"inconclusive: 14.1 µM [inhibitor, partial curve, poor fit]",–
O=C(c1ccco1)N1CCN(c2ncnc3c2[nH]c2ccc(Br)cc23)CC1,"inconclusive: 28.2 µM [inhibitor, partial curve, poor fit]",–
NC(c1csc(NC(=O)c2cccc(OC(F)(F)F)c2)n1)c1ccccc1Cl (stereo not drawn),–,inactive: -0.688%
COc1cc(NS(=O)(=O)c2ccc(N/C=C(\C#N)c3nc4cc(Cl)ccc4o3)cc2)nc(OC)n1,"inconclusive: 28.2 µM [inhibitor, partial curve, poor fit]",–
Cc1cccc(/C=C/C(=O)c2ccc([N+](=O)[O-])o2)c1,"inconclusive: 4.47 µM [inhibitor, partial curve, poor fit]",–
O=C(N/N=C/c1ccc([N+](=O)[O-])s1)c1ccccc1Br,"inconclusive: 5.01 µM [inhibitor, partial curve, poor fit]",–
Cc1cc(NC(c2cccnc2)c2ccc3cccnc3c2O)no1 (stereo not drawn),–,inactive: -3.83%
CCCC(=O)Nc1ccc2nc(SCC(=O)N3CCCC3)sc2c1,"inconclusive: 28.2 µM [inhibitor, single point]",–
COc1ccc(/C=C/C(=O)c2cc3cccc(OC)c3oc2=O)cc1,"inconclusive: 3.98 µM [inhibitor, partial curve, poor fit]",–
